Experimental data from patent US11685745B2, “Substituted benzoxazole and benzofuran compounds as PDE7 inhibitors” (Dart NeuroScience, LLC, priority 2017, dated 2023).

molecular target: N-terminal truncated recombinant human PDE7B enzyme (Homo sapiens (Human), UniProt Q9NP56); assay: biochemical

Compound | IC50 [nM]
O=C1Nc2c(Cl)cc3nc(C(=O)NC[C@H]4CCOC4)oc3c2C2(CCCCC2)N1 [Example 212, 5-Chloro-7-oxo-N-[(3R)-oxolan-3-ylmethyl]-7,8-dihydro-6H-spiro[[1,3]oxazolo[5,4-f]quinazoline-9,1′-cyclohexane]-2-carboxamide] | 10 to 100
CCC(=O)N1CCN(Cc2nc3cc(Cl)c4c(c3o2)C2(CCCCC2)NC(=O)N4)CC1 [Example 48, 5-Chloro-2-[(4-propanoylpiperazin-1-yl)methyl]-7,8-dihydro-6H-spiro[[1,3]oxazolo[5,4-f]quinazoline-9,1′-cyclohexane]-7-one] | 10 to 100
CCC(=O)N1CCC2(CCCN(C(=O)c3cc4cc(Cl)c5c(c4o3)C3(CCCCC3)NC(=O)N5)C2)CC1 [Example 390, 5′-Chloro-2′-{9-propanoyl-2,9-diazaspiro[5.5]undecane-2-carbonyl}-7′,8′-dihydro-6′H-spiro[cyclohexane-1,9′-furo[2,3-f]quinazoline]-7′-one] | 10 to 100
Cn1ccnc1CNCc1cc2cc(Cl)c3c(c2o1)C1(CCCCC1)NC(=O)N3 [Example 564, 5′-Chloro-2′-({[(1-methyl-1H-imidazol-2-yl)methyl]amino}methyl)-7′,8′-dihydro-6′H-spiro[cyclohexane-1,9′-furo[2,3-f]quinazoline]-7′-one] | 10 to 100
CC(=O)Nc1nc2cc(Cl)c3c(c2o1)C1(CCCCC1)NC(=O)N3 [Example 23, N-(5′-Chloro-7′-oxo-7′,8′-dihydro-6′H-spiro[cyclohexane-1,9′-oxazolo[5,4-f]quinazolin]-2′-yl)acetamide] | 100 to 1000
CN(Cc1ccco1)Cc1cc2cc(Cl)c3c(c2o1)C1(CCCCC1)NC(=O)N3 [Example 484, 5′-Chloro-2′-{[(furan-2-ylmethyl)(methyl)amino]methyl}-7′,8′-dihydro-6′H-spiro[cyclohexane-1,9′-furo[2,3-f]quinazoline]-7′-one] | 100 to 1000
CC1C(=O)N(C)CCN1Cc1nc2cc(Cl)c3c(c2o1)C1(CCCCC1)NC(=O)N3 (centres unmarked) [Example 62, 5-Chloro-2-[(2,4-dimethyl-3-oxopiperazin-1-yl)methyl]-7,8-dihydro-6H-spiro[[1,3]oxazolo[5,4-f]quinazoline-9,1′-cyclohexane]-7-one] | 10 to 100
CC1(CNCc2nc3cc(Cl)c4c(c3o2)C2(CCCCC2)NC(=O)N4)CCOC1 (centres unmarked) [Example 160, 5-Chloro-2-({[(3-methyloxolan-3-yl)methyl]amino}methyl)-7,8-dihydro-6H-spiro[[1,3]oxazolo[5,4-f]quinazoline-9,1′-cyclohexane]-7-one] | 10 to 100
CNCc1nc2cc(Cl)c3c(c2o1)C1(CCCCC1)NC(=O)N3 [Example 35, 5-Chloro-2-[(methylamino)methyl]-7,8-dihydro-6H-spiro[[1,3]oxazolo[5,4-f]quinazoline-9,1′-cyclohexane]-7-one] | 10 to 100
CC(C)N(CC1CCC(=O)N1)C(=O)c1cc2cc(Cl)c3c(c2o1)C1(CCCCC1)NC(=O)N3 (centres unmarked) [Example 379, 5′-Chloro-7′-oxo-N-[(5-oxopyrrolidin-2-yl)methyl]-N-(propan-2-yl)-7′,8′-dihydro-6′H-spiro[cyclohexane-1,9′-furo[2,3-f]quinazoline]-2′-carboxamide] | 10 to 100
O=C1Nc2c(Cl)cc3nc(CN4CCC[C@@H]4CO)oc3c2C2(CCCCC2)N1 [Example 97, 5-Chloro-2-{[(2R)-2-(hydroxymethyl)pyrrolidin-1-yl]methyl}-7,8-dihydro-6H-spiro[[1,3]oxazolo[5,4-f]quinazoline-9,1′-cyclohexane]-7-one] | 100 to 1000
COCC1(NC(=O)c2cc3cc(Cl)c4c(c3o2)C2(CCCCC2)NC(=O)N4)CC1 [Example 354, 5′-Chloro-N-[1-(methoxymethyl)cyclopropyl]-7′-oxo-7′,8′-dihydro-6′H-spiro[cyclohexane-1,9′-furo[2,3-f]quinazoline]-2′-carboxamide] | 10 to 100
CN(Cc1ccco1)C(=O)c1cc2cc(Cl)c3c(c2o1)C1(CCCCC1)NC(=O)N3 [Example 327, 5′-Chloro-N-(furan-2-ylmethyl)-N-methyl-7′-oxo-7′,8′-dihydro-6′H-spiro[cyclohexane-1,9′-furo[2,3-f]quinazoline]-2′-carboxamide] | 10 to 100
O=C1Nc2c(Cl)cc3cc(C(=O)N4CCC(N5CCCC5)CC4)oc3c2C2(CCCCC2)N1 [Example 451, 5′-Chloro-2′-[4-(pyrrolidin-1-yl)piperidine-1-carbonyl]-7′,8′-dihydro-6′H-spiro[cyclohexane-1,9′-furo[2,3-f]quinazoline]-7′-one] | 100 to 1000
O=C1Nc2c(Cl)cc3cc(C(=O)NCCCN4CCOCC4)oc3c2C2(CCCCC2)N1 [Example 281, 5′-Chloro-N-[3-(morpholin-4-yl)propyl]-7′-oxo-7′,8′-dihydro-6′H-spiro[cyclohexane-1,9′-furo[2,3-f]quinazoline]-2′-carboxamide] | 10 to 100
COC1CCN(C(=O)c2nc3cc(Cl)c4c(c3o2)C2(CCCCC2)NC(=O)N4)C1 (centres unmarked) [Example 199, 5-Chloro-2-(3-methoxypyrrolidine-1-carbonyl)-7,8-dihydro-6H-spiro[[1,3]oxazolo[5,4-f]quinazoline-9,1′-cyclohexane]-7-one] | 10 to 100
Cc1noc(C)c1CCN(C)C(=O)c1cc2cc(Cl)c3c(c2o1)C1(CCCCC1)NC(=O)N3 [Example 446, 5′-Chloro-N-[2-(dimethyl-1,2-oxazol-4-yl)ethyl]-N-methyl-7′-oxo-7′,8′-dihydro-6′H-spiro[cyclohexane-1,9′-furo[2,3-f]quinazoline]-2′-carboxamide] | 10 to 100
O=C1Nc2c(Cl)cc3cc(C(=O)N4CCN(c5ccncc5)CC4)oc3c2C2(CCCCC2)N1 [Example 305, 5′-Chloro-2′-[4-(pyridin-4-yl)piperazine-1-carbonyl]-7′,8′-dihydro-6′H-spiro[cyclohexane-1,9′-furo[2,3-f]quinazoline]-7′-one] | 100 to 1000
COc1ccc(CNC(=O)c2cc3cc(Cl)c4c(c3o2)C2(CCCCC2)NC(=O)N4)c(F)c1 [Example 317, 5′-Chloro-N-[(2-fluoro-4-methoxyphenyl)methyl]-7′-oxo-7′,8′-dihydro-6′H-spiro[cyclohexane-1,9′-furo[2,3-f]quinazoline]-2′-carboxamide] | 10 to 100
O=C1Nc2c(Cl)cc3cc(CN4CCC(CCO)CC4)oc3c2C2(CCCCC2)N1 [Example 502, 5′-Chloro-2′-{[4-(2-hydroxyethyl)piperidin-1-yl]methyl}-7′,8′-dihydro-6′H-spiro[cyclohexane-1,9′-furo[2,3-f]quinazoline]-7′-one] | 100 to 1000
COC1CCN(C(=O)c2cc3cc(Cl)c4c(c3o2)C2(CCCCC2)NC(=O)N4)CC1 [Example 247, 5′-Chloro-2′-(4-methoxypiperidine-1-carbonyl)-7′,8′-dihydro-6′H-spiro[cyclohexane-1,9′-furo[2,3-f]quinazoline]-7′-one] | 100 to 1000
CCOC(=O)C1CCN(Cc2nc3cc(Cl)c4c(c3o2)C2(CCCCC2)NC(=O)N4)CC1 [Example 63, Ethyl 1-{5-chloro-7-oxo-7,8-dihydro-6H-spiro[[1,3]oxazolo[5,4-f]quinazoline-9,1′-cyclohexane]-2-ylmethyl}piperidine-4-carboxylate] | 100 to 1000
O=C1Nc2c(Cl)cc3cc(C(=O)N4Cc5cccnc5C4)oc3c2C2(CCCCC2)N1 [Example 464, 5′-Chloro-2′-{5H,6H,7H-pyrrolo[3,4-b]pyridine-6-carbonyl}-7′,8′-dihydro-6′H-spiro[cyclohexane-1,9′-furo[2,3-f]quinazoline]-7′-one] | 100 to 1000
